Data from PMC4336329 (PLoS ONE, 2015).
The whole screen tested about 310,000 compounds, of which about 2,200 (0.71%) showed an effect of 50% or more. Effects have a minus sign here. Some of the results follow.

What follows are molecules tested against human ether-à-go-go-related gene (hERG) potassium channel (human, UniProt Q12809) (assay: primary screen, population patch clamp on CHO cells stably expressing hERG).
Sequence of human ether-à-go-go-related gene (hERG) potassium channel (Q12809 whole entry, looked up): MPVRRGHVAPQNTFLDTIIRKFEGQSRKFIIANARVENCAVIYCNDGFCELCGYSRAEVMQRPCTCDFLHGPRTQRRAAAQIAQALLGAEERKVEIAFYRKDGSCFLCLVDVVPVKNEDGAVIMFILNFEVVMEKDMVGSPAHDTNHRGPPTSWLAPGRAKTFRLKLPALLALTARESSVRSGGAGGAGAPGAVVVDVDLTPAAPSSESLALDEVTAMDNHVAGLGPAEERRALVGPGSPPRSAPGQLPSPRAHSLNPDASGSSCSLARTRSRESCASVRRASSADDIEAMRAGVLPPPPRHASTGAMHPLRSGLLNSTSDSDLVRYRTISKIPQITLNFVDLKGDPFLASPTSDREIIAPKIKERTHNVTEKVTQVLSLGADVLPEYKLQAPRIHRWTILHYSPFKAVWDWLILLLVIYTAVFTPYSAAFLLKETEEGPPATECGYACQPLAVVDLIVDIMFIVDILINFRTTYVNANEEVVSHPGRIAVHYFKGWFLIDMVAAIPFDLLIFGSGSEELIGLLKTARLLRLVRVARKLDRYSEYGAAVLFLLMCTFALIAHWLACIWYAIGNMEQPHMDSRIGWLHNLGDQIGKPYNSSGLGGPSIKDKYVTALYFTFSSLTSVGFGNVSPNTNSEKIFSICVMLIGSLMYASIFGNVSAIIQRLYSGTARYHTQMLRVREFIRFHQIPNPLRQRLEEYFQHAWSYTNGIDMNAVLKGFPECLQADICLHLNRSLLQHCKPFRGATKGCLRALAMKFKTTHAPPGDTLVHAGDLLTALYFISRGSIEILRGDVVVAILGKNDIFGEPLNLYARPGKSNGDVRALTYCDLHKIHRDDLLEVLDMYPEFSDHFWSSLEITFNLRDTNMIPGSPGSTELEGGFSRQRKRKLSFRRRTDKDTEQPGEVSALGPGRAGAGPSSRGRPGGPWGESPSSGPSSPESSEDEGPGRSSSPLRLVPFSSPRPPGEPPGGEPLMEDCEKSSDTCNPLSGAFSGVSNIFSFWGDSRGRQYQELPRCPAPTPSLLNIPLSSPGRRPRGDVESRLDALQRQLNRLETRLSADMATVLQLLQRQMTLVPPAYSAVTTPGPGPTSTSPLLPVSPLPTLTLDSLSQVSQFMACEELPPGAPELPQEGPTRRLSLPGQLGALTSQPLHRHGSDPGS

| SMILES | hERG current change (%, negative = inhibition) at 1uM [%] |
| --- | --- |
| CC(C)Oc1ccc(CC2CCC(=O)N(C)C2=O)cc1 (stereo not drawn) | -4.3 |
| O=C(Nc1cccc(Cl)c1)N(CCN1CCOCC1)Cc1cccc(Cl)c1 | 7.58 |
| c1ccc2sc(NC3=NCN(Cc4ccc5c(c4)OCO5)CN3)nc2c1 | 8.89 |
| COC(=O)C1=C(c2ccc(F)cc2OCc2ccccc2)C[C@@H]2CC[C@H]1N2C(=O)NCCO | 11 |
| COc1cccc(CNC(=O)CCNS(=O)(=O)c2cccs2)c1 | 1.5 |
| CCSc1nnc(NC(=O)COc2ccc(Cl)cc2)s1 | 17.2 |
| CCn1c(SCC(=O)NC2CCCC2)nnc1-c1ccoc1C | 16.3 |
| COc1ccc(CN2CCN(C)CC2)cc1OCc1ccccc1 | 2.05 |
| O=C(O)c1ccc(/C=N/NC(=O)c2ccc3c(c2)OCCO3)cc1 | 12.7 |
| Cc1nc(N(C)C)c2sc(=S)n(C)c2n1 | 7.68 |
| Oc1ccc(Cl)cc1C=Nc1ccc(Br)cc1 | 16.5 |
| CSc1ccc(S(=O)(=O)NCC(=O)OC(C)C(=O)NCc2ccccc2)cc1[N+](=O)[O-] (stereo not drawn) | 10.1 |
| O=C(Nc1cccnc1)c1cc(-c2ccc(Cl)cc2)on1 | 13.2 |
| Nc1nc(N)nc(COc2ccccc2)n1 | 10.1 |
| CCN(CC)S(=O)(=O)c1ccc(OC)c(NC(=S)Nc2cccc(C)c2)c1 | -0.259 |
| C=CCN1C(=O)/C(=C/C=C2/N(CC)c3ccc(S(=O)(=O)N(C)C)cc3N2CC)SC1=S | 9.33 |
| Cc1ccc(S(=O)(=O)N(C)CC(=O)OCc2nnc(-c3ccccc3)o2)cc1 | -0.329 |
| Cc1ccc(NC(=O)COC(=O)CN2CCCCCC2=O)cc1C | 4.71 |
| O=C(CCc1ccccc1)NN1C(=O)C2C3C=CC(O3)C2C1=O (stereo not drawn) | 16.2 |

| SMILES | hERG current change (%, negative = inhibition) at 1uM [%] |
| --- | --- |
| CC(=O)Nc1ccc(/C=N/NC(=O)CNC(=O)c2ccccc2)cc1 | 13.6 |
| CC12CN3CCN(CC(C3)C1(O)CN1CCCCC1)C2 (stereo not drawn) | 4.39 |
| COc1ccc(/C=N/OC(=O)Nc2ccccc2)cc1[N+](=O)[O-] | 6.58 |
| Cc1ccc(NC(=O)c2cc(-c3ccccc3O)n[nH]2)cc1Cl | 2.37 |
| CCc1cccc(CC)c1NC(=O)Cn1c(-c2ccc(F)cc2)noc1=O | 2.26 |
| CN(C=C1C(=O)CC(C)(C)CC1=O)CCN1CCNCC1 | 2.4 |
| COc1ccc(-c2nc3n(c(=O)c2C#N)CCCS3)cc1 | 8.67 |
| O=C(c1cccn(Cc2cccc(Cl)c2)c1=O)N1CCOCC1 | -7.56 |
| CC(=O)Nc1ccc(CN2CCCC(CO)(Cc3cccc(Cl)c3)C2)cc1 (stereo not drawn) | -10.1 |
| COc1ccc(C(=O)N(CCc2ccccc2)Cc2cccs2)c(OC)c1 | 8.84 |
| O=C(CSC1CN(C(c2ccccc2)c2ccccc2)C1)N/N=C/c1ccccc1 | 10 |
| O=C(C1CCCCN1S(=O)(=O)c1ccccc1)N1CCCCC1 (stereo not drawn) | -1.18 |
| Cc1cc([N+](=O)[O-])cc2c1NC(=O)C2(O)N1CCCCCC1 (stereo not drawn) | 10.6 |
| CC(=O)Nc1ccc(/C=C/c2ccc3cccc([N+](=O)[O-])c3n2)cc1 | -3.41 |
| CC(=O)Nc1ccc(S(=O)(=O)N2CCCc3ccccc32)cc1 | -4.77 |
| Cn1nnc2cc(NC(=O)Nc3cccc(C(F)(F)F)c3)ccc21 | 9.81 |
| Cc1ccc2c(c1)cc1c(=O)n(CC(=O)NCc3ccccn3)nc(C)n12 | -3.89 |
| Cc1ccc(S(=O)(=O)N2CCC(C(=O)OCC(=O)N3CCCCC3C)CC2)cc1C (stereo not drawn) | 11 |
| CCC(C)c1ccc(N(CC(=O)NC(C)(C)C)C(=O)CNC(=O)c2cccs2)cc1 (stereo not drawn) | 14.6 |

| SMILES | hERG current change (%, negative = inhibition) at 1uM [%] |
| --- | --- |
| COc1cc(Cl)ccc1OCc1cc(C(=O)N[C@H]2CCCCNC2=O)no1 | 10.7 |
| CC(C)N(Cc1ccccc1)S(=O)(=O)c1ccc2c(c1)NC(=O)CO2 | 10.4 |
| O=C(c1cn(-c2ccccc2)nc1-c1ccccc1)n1nnc2ccccc21 | 14.5 |
| CC(/C=C1\SC(=S)N(NS(=O)(=O)c2ccccc2)C1=O)=C\c1ccccc1 | 4.21 |
| COc1ccccc1C(CNC(=O)C1CC(=O)N(Cc2ccccc2)C1)N1CCCC1 (stereo not drawn) | 6.96 |
| S=c1[nH]nc(-c2cccnc2)n1/N=C/C(Cl)=C\c1ccccc1 | 6.7 |
| CCN(CC)c1ccc(S(=O)(=O)N2CCOCC2)cc1NC(=O)COC(=O)c1ccco1 | -5.71 |
| COC(=O)C1CCN(C(=O)COC(=O)c2cc([N+](=O)[O-])ccc2N2CCOCC2)CC1 | 2.09 |
| O=S(=O)(c1ccc(F)cc1)N1CCN(c2ccc(F)cc2)CC1 | 6.83 |
| CC(C)CNC(=O)c1ccccc1NC(=O)CN(c1ccc2c(c1)OCCO2)S(C)(=O)=O | 11.9 |
| Cc1c(O)c(=O)ccn1Cc1ccccc1 | 15.1 |
| CN(C)/C=C(\C#N)C(N)=C(C#N)C#N | 12.2 |
| O=C(NCc1ccco1)C1CCCN1C(=O)Nc1ccccc1[N+](=O)[O-] (stereo not drawn) | 13.4 |
| Cc1cc(C)c(C#N)c(OCC(=O)Nc2ccccc2)n1 | 14.5 |
| Cc1ccc(C)c(C(=O)CSc2nc(C)cc(=O)[nH]2)c1 | 16.1 |
| Cc1cc(C)n2cc(CSc3nnnn3C)nc2n1 | 4.86 |
| CCOC(=O)N1CCC(NS(=O)(=O)c2cc(C(=O)OC)n(C)c2)CC1 | 11.6 |
| COc1ccc(NC(=O)c2sc(-c3ccccc3)nc2C)c(OC)c1 | 11.1 |
| Brc1ccccc1OCCOc1cccc2cccnc12 | 13.1 |
